# Measurements reported in the supplement of paper PMC8728848.
# The other results are listed elsewhere or left out.
# B1: MIC4-A5 (Toxoplasma gondii), Q9XZH7 (protein)
# chain: SPDFHDEVECVHTGNIGSKAQTIGEVKRASSLSECRARCQAEKECSHYTYNVKSGLCYPKRGKPQFYKYLGDMTGSRTCDTS
# Experiments:
# Test in all cases: glycan array binding signal (z-score within array); higher = stronger binding
# Details in all cases: glycan notation: IUPAC condensed, linker removed
# [1] = molecular target: GlcNAc(b1-2)Man(a1-3)[Man(a1-3)[Man(a1-6)]Man(a1-6)][GlcNAc(b1-4)]Man(b1-4)GlcNAc(b1-4)GlcNAc
# How it was run: (§1)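 Negative Z-scores can be read as non-binding. The Z-score is calculated within each array and then averaged across arrays of one protein sequence at different concentrations or buffers and across linkers. Arrays, 3228 in all, were curated from the Consortium for Functional Glycomics database and kept only where the protein sequence was available.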
# [2] = molecular target: GlcNAc(b1-2)[GlcNAc(b1-4)]Man(a1-3)[GlcNAc(b1-2)Man(a1-6)][GlcNAc(b1-4)]Man(b1-4)GlcNAc(b1-4)GlcNAc
# How it was run: as §1
# [3] = molecular target: GlcNAc(b1-2)[GlcNAc(b1-4)]Man(a1-3)[GlcNAc(b1-2)[GlcNAc(b1-4)][GlcNAc(b1-6)]Man(a1-6)][GlcNAc(b1-4)]Man(b1-4)GlcNAc(b1-4)GlcNAc
# How it was run: as §1
# [4] = molecular target: GlcNAc(b1-2)[GlcNAc(b1-4)]Man(a1-3)[GlcNAc(b1-2)[GlcNAc(b1-6)]Man(a1-6)]Man(b1-4)GlcNAc(b1-4)GlcNAc
# How it was run: as §1
# [5] = molecular target: GlcNAc(b1-3)Fuc
# How it was run: as §1
# [6] = molecular target: GlcNAc(b1-3)Gal(b1-4)Glc
# How it was run: as §1
# [7] = molecular target: GlcNAc(b1-3)[GlcNAc(b1-6)]Gal
# How it was run: as §1
# [8] = molecular target: GlcNAc(b1-3)[GlcNAc(b1-6)]Gal(b1-4)GlcNAc(b1-3)[GlcNAc(b1-6)]Gal(b1-4)GlcNAc(b1-3)Gal(b1-4)Glc
# How it was run: as §1
# [9] = molecular target: GlcNAc(b1-4)Fuc
# How it was run: as §1
# [10] = molecular target: GlcNAc(b1-4)GlcNAc
# How it was run: as §1
# [11] = molecular target: GlcNAc(b1-4)GlcNAc(b1-4)GlcNAc
# How it was run: as §1
# [12] = molecular target: GlcNAc(b1-4)GlcNAc(b1-4)GlcNAc(b1-4)GlcNAc
# How it was run: as §1
# [13] = molecular target: GlcNAc(b1-4)GlcNAc(b1-4)GlcNAc(b1-4)GlcNAc(b1-4)GlcNAc
# How it was run: as §1
# [14] = molecular target: GlcNAc(b1-4)GlcNAc(b1-4)GlcNAc(b1-4)GlcNAc(b1-4)GlcNAc(b1-4)GlcNAc
# How it was run: as §1
# [15] = molecular target: GlcNAc(b1-4)GlcNAc(b1-4)GlcNAc(b1-4)GlcNAc(b1-4)GlcNAc(b1-4)GlcNAc(b1-4)GlcNAc
# How it was run: as §1
# [16] = molecular target: GlcNAc(b1-4)GlcNAc(b1-4)GlcNAc(b1-4)GlcNAc(b1-4)GlcNAc(b1-4)GlcNAc(b1-4)GlcNAc(b1-4)GlcNAc
# How it was run: as §1
# [17] = molecular target: HexA(a1-3)GalNAc4S(b1-4)GlcA(b1-3)GalNAc4S
# How it was run: as §1
# [18] = molecular target: HexA(a1-3)GalNAc4S(b1-4)GlcA(b1-3)GalNAc4S(b1-4)GlcA(b1-3)GalNAc4S(b1-4)GlcA(b1-3)GalNAc4S(b1-4)GlcA(b1-3)GalNAc4S(b1-4)GlcA(b1-3)GalNAc4S(b1-4)GlcA(b1-3)GalNAc4S
# How it was run: as §1
# [19] = molecular target: HexA(a1-3)GalNAc4S(b1-4)IdoA(a1-3)GalNAc4S
# How it was run: as §1
# [20] = molecular target: HexA(a1-3)GalNAc4S(b1-4)IdoA(a1-3)GalNAc4S(b1-4)IdoA(a1-3)GalNAc4S(b1-4)IdoA(a1-3)GalNAc4S(b1-4)IdoA(a1-3)GalNAc4S(b1-4)IdoA(a1-3)GalNAc4S(b1-4)IdoA(a1-3)GalNAc4S
# How it was run: as §1
# [21] = molecular target: HexA(a1-3)GalNAc6S(b1-4)GlcA(b1-3)GalNAc6S
# How it was run: as §1
# [22] = molecular target: HexA(a1-3)GalNAc6S(b1-4)GlcA(b1-3)GalNAc6S(b1-4)GlcA(b1-3)GalNAc6S(b1-4)GlcA(b1-3)GalNAc6S(b1-4)GlcA(b1-3)GalNAc6S(b1-4)GlcA(b1-3)GalNAc6S(b1-4)GlcA(b1-3)GalNAc6S
# How it was run: as §1
# [23] = molecular target: HexA2S(a1-4)GlcNS6S
# How it was run: as §1
# [24] = molecular target: HexA6S(a1-4)GlcNS6S(a1-4)IdoA2S(a1-4)GlcNS6S
# How it was run: as §1
# [25] = molecular target: HexA6S(a1-4)GlcNS6S(a1-4)IdoA2S(a1-4)GlcNS6S(a1-4)IdoA2S(a1-4)GlcNS6S(a1-4)IdoA2S(a1-4)GlcNS6S(a1-4)IdoA2S(a1-4)GlcNS6S(a1-4)IdoA2S(a1-4)GlcNS6S(a1-4)IdoA2S(a1-4)GlcNS6S
# How it was run: as §1
# [26] = molecular target: Man(a1-2)Man
# How it was run: as §1
# [27] = molecular target: Man(a1-2)Man(a1-2)Man(a1-3)[Man(a1-2)Man(a1-3)[Man(a1-2)Man(a1-6)]Man(a1-6)]Man(b1-4)GlcNAc(b1-4)GlcNAc
# How it was run: as §1
# [28] = molecular target: Man(a1-2)Man(a1-2)Man(a1-3)[Man(a1-2)Man(a1-6)[Man(a1-3)]Man(a1-6)]Man(b1-4)GlcNAc(b1-4)GlcNAc
# How it was run: as §1
# [29] = molecular target: Man(a1-2)Man(a1-2)Man(a1-3)[Man(a1-3)[Man(a1-6)]Man(a1-6)]Man(b1-4)GlcNAc(b1-4)GlcNAc
# How it was run: as §1
# [30] = molecular target: Man(a1-2)Man(a1-3)[Man(a1-2)Man(a1-6)[Man(a1-3)]Man(a1-6)]Man(b1-4)GlcNAc(b1-4)GlcNAc
# How it was run: as §1
# [31] = molecular target: Man(a1-2)Man(a1-3)[Man(a1-3)[Man(a1-6)]Man(a1-6)]Man(b1-4)GlcNAc(b1-4)GlcNAc
# How it was run: as §1
# [32] = molecular target: Man(a1-3)Man
# How it was run: as §1
# [33] = molecular target: Man(a1-3)Man(a1-6)[Man(a1-3)]Man(b1-4)GlcNAc(b1-4)GlcNAc
# How it was run: as §1
# [34] = molecular target: Man(a1-3)Man(b1-4)GlcNAc
# How it was run: as §1
# [35] = molecular target: Man(a1-3)[Man(a1-6)]Man
# How it was run: as §1
# [36] = molecular target: Man(a1-3)[Man(a1-6)]Man(a1-6)Man(b1-4)GlcNAc(b1-4)GlcNAc
# How it was run: as §1
# [37] = molecular target: Man(a1-3)[Man(a1-6)]Man(a1-6)[Man(a1-3)]Man
# How it was run: as §1
# [38] = molecular target: Man(a1-3)[Man(a1-6)]Man(a1-6)[Man(a1-3)]Man(b1-4)GlcNAc(b1-4)GlcNAc
# How it was run: as §1
# [39] = molecular target: Man(a1-3)[Man(a1-6)]Man(b1-4)GlcNAc(b1-4)GlcNAc
# How it was run: as §1
# [40] = molecular target: Man(a1-3)[Man(a1-6)]Man(b1-4)GlcNAc(b1-4)[Fuc(a1-6)]GlcNAc
# How it was run: as §1
# [41] = molecular target: Man(a1-6)Man
# How it was run: as §1
# [42] = molecular target: Man(a1-6)Man(b1-4)GlcNAc(b1-4)GlcNAc
# How it was run: as §1
# [43] = molecular target: Man(b1-4)GlcNAc
# How it was run: as §1
# [44] = molecular target: Man(b1-4)Man(b1-4)Man(b1-4)Man
# How it was run: as §1
# [45] = molecular target: Man(b1-4)Man(b1-4)Man(b1-4)Man(b1-4)Man
# How it was run: as §1
binder,measurement,setting,value
B1,glycan array binding signal (z-score),[1],-0.323
same,glycan array binding signal (z-score),[2],-0.322
same,glycan array binding signal (z-score),[3],0.308
same,glycan array binding signal (z-score),[4],-0.323
same,glycan array binding signal (z-score),[5],-0.315
same,glycan array binding signal (z-score),[6],-0.323
same,glycan array binding signal (z-score),[7],-0.323
same,glycan array binding signal (z-score),[8],-0.312
same,glycan array binding signal (z-score),[9],-0.302
same,glycan array binding signal (z-score),[10],-0.323
same,glycan array binding signal (z-score),[11],-0.323
same,glycan array binding signal (z-score),[12],-0.323
same,glycan array binding signal (z-score),[13],-0.323
same,glycan array binding signal (z-score),[14],-0.323
same,glycan array binding signal (z-score),[15],-0.323
same,glycan array binding signal (z-score),[16],-0.323
same,glycan array binding signal (z-score),[17],-0.323
same,glycan array binding signal (z-score),[18],-0.323
same,glycan array binding signal (z-score),[19],-0.323
same,glycan array binding signal (z-score),[20],-0.323
same,glycan array binding signal (z-score),[21],-0.323
same,glycan array binding signal (z-score),[22],-0.323
same,glycan array binding signal (z-score),[23],-0.323
same,glycan array binding signal (z-score),[24],-0.323
same,glycan array binding signal (z-score),[25],-0.319
same,glycan array binding signal (z-score),[26],-0.323
same,glycan array binding signal (z-score),[27],-0.323
same,glycan array binding signal (z-score),[28],-0.323
same,glycan array binding signal (z-score),[29],-0.323
same,glycan array binding signal (z-score),[30],-0.323
same,glycan array binding signal (z-score),[31],-0.323
same,glycan array binding signal (z-score),[32],-0.323
same,glycan array binding signal (z-score),[33],-0.317
same,glycan array binding signal (z-score),[34],-0.323
same,glycan array binding signal (z-score),[35],-0.323
same,glycan array binding signal (z-score),[36],-0.323
same,glycan array binding signal (z-score),[37],-0.323
same,glycan array binding signal (z-score),[38],-0.323
same,glycan array binding signal (z-score),[39],-0.323
same,glycan array binding signal (z-score),[40],-0.321
same,glycan array binding signal (z-score),[41],-0.323
same,glycan array binding signal (z-score),[42],-0.323
same,glycan array binding signal (z-score),[43],-0.323
same,glycan array binding signal (z-score),[44],-0.323
same,glycan array binding signal (z-score),[45],-0.323
